Results as given in patent EP0545991B1, “PEPTIDES THAT BLOCK HUMAN IMMUNODEFICIENCY VIRUS INFECTIONS AND METHODS OF USE THEREOF” (VAHLNE, Anders, priority 1990, dated 1992).
Part of at least one peptide drawing is inferred or uncertain, most often the ends. Some compounds share one wording; it may come from a single statement. Where a SMILES comes first, the peptide text is derived from it.

What was measured:
HTLV-111/H9 = HTLV-111/H9 p24 antigen ELISA run beside the SIV experiment; type: cell-based, HIV
[1] = test system: herpes simplex virus type I (HSV-1) strain McIntyre; test: Plaque reduction assay of HSV-1 on GMK AH1 cells; type: cell-based; conditions: for PLAQUE REDUCTION NO. OF PLAQUES: mean of two cultures, 4 days at 37°C
HTLV IIIB/H9 N.Y. = test: Infectivity assay (p24 ELISA, syncytia formation, indirect immunofluorescence), HTLV-IIIB/H9 New York; type: cell-based, HIV
[2] = 0.015 mM, Table 8, listed as GPG-NH2 Bachem
[3] = 0.015 mM, Table 8, listed as GPG-NH2 Syntello
[4] = 0.0625 mM, Table 8, listed as GPG-NH2 Bachem
[5] = 0.0625 mM, Table 8, listed as GPG-NH2 Syntello
[6] = 0.25 mM, Table 8, listed as GPG-NH2 Bachem
[7] = 0.25 mM, Table 8, listed as GPG-NH2 Syntello
[8] = 1 mM, Table 8, listed as GPG-NH2 Bachem
[9] = 1 mM, Table 8, listed as GPG-NH2 Syntello
[10] = 4 mM, Table 8, listed as GPG-NH2 Bachem

NCC(=O)N1CCC[C@H]1C(=O)NCC(N)=O [GPG, Gly-Pro-Gly-NH2] (H-Gly-Pro-Gly-NH2)
p24 1/1 (HTLV-111/H9; 0.015 mM): 0.058 absorbance (454 nm)
p24 1/10 (HTLV-111/H9; 0.015 mM): 0.048 absorbance (454 nm)
p24 1/1 (HTLV-111/H9; 0.0625 mM): 0.053 absorbance (454 nm)
p24 1/10 (HTLV-111/H9; 0.0625 mM): 0.044 absorbance (454 nm)
p24 1/1 (HTLV-111/H9; 0.25 mM): 0.051 absorbance (454 nm)
p24 1/10 (HTLV-111/H9; 0.25 mM): 0.05 absorbance (454 nm)
p24 1/1 (HTLV-111/H9; 1 mM): 0.062 absorbance (454 nm)
p24 1/10 (HTLV-111/H9; 1 mM): 0.047 absorbance (454 nm)
p24 1/1 (HTLV-111/H9; 4 mM): 0.052 absorbance (454 nm)
p24 1/10 (HTLV-111/H9; 4 mM): 0.048 absorbance (454 nm)
PLAQUE REDUCTION PERCENT OF CONTROL ([1]; 25 µg/ml): 97
PLAQUE REDUCTION NO. OF PLAQUES ([1]; 25 µg/ml): 158
PLAQUE REDUCTION PERCENT OF CONTROL ([1]; 250 µg/ml): 99
PLAQUE REDUCTION NO. OF PLAQUES ([1]; 250 µg/ml): 161
capacity of HSV-1 to replicate in GMK cells ([1]; plaque reduction and virus yields, Table 7): did not reduce the capacity of HSV-1 to replicate
p24 1/10 (HTLV IIIB/H9 N.Y.; 0.015 mM, Table 8): >2.0 absorbance (454 nm)
# OF SYNCYTIA/WELL Day 7 (HTLV IIIB/H9 N.Y.; [2]): 61
p24 1/100 (HTLV IIIB/H9 N.Y.; [2]): 1.259 absorbance (454 nm)
p24 1/1000 (HTLV IIIB/H9 N.Y.; [2]): 0.342 absorbance (454 nm)
# OF SYNCYTIA/WELL Day 7 (HTLV IIIB/H9 N.Y.; [3]): 68
p24 1/100 (HTLV IIIB/H9 N.Y.; [3]): 1.145 absorbance (454 nm)
p24 1/1000 (HTLV IIIB/H9 N.Y.; [3]): 0.274 absorbance (454 nm)
# OF SYNCYTIA/WELL Day 9 (HTLV IIIB/H9 N.Y.; 25 µg/ml): 2
# OF SYNCYTIA/WELL Day 14 (HTLV IIIB/H9 N.Y.; 25 µg/ml): 20
% OF POS CELLS (HTLV IIIB/H9 N.Y.; 25 µg/ml): 3-5%
p24 1/10 (HTLV IIIB/H9 N.Y.; 25 µg/ml): 1.489 absorbance (454 nm)
p24 1/100 (HTLV IIIB/H9 N.Y.; 25 µg/ml): 0.376 absorbance (454 nm)
p24 1/1,000 (HTLV IIIB/H9 N.Y.; 25 µg/ml): 0.15 absorbance (454 nm)
p24 1/10,000 (HTLV IIIB/H9 N.Y.; 25 µg/ml): 0.109 absorbance (454 nm)
p24 1/1000 (HTLV IIIB/H9 N.Y.; 0.0625 mM, Table 8): 0.11 absorbance (454 nm)
# OF SYNCYTIA/WELL Day 7 (HTLV IIIB/H9 N.Y.; [4]): 0
p24 1/10 (HTLV IIIB/H9 N.Y.; [4]): 0.404 absorbance (454 nm)
p24 1/100 (HTLV IIIB/H9 N.Y.; [4]): 0.131 absorbance (454 nm)
# OF SYNCYTIA/WELL Day 7 (HTLV IIIB/H9 N.Y.; [5]): 1
p24 1/10 (HTLV IIIB/H9 N.Y.; [5]): 1.271 absorbance (454 nm)
p24 1/100 (HTLV IIIB/H9 N.Y.; [5]): 0.247 absorbance (454 nm)
# OF SYNCYTIA/WELL Day 7 (HTLV IIIB/H9 N.Y.; [6]): 0
p24 1/10 (HTLV IIIB/H9 N.Y.; [6]): 0.063 absorbance (454 nm)
p24 1/100 (HTLV IIIB/H9 N.Y.; [6]): 0.07 absorbance (454 nm)
p24 1/1000 (HTLV IIIB/H9 N.Y.; [6]): 0.074 absorbance (454 nm)
# OF SYNCYTIA/WELL Day 7 (HTLV IIIB/H9 N.Y.; [7]): 1
p24 1/10 (HTLV IIIB/H9 N.Y.; [7]): 0.094 absorbance (454 nm)
p24 1/100 (HTLV IIIB/H9 N.Y.; [7]): 0.075 absorbance (454 nm)
p24 1/1000 (HTLV IIIB/H9 N.Y.; [7]): 0.08 absorbance (454 nm)
# OF SYNCYTIA/WELL Day 9 (HTLV IIIB/H9 N.Y.; 250 µg/ml): 0
# OF SYNCYTIA/WELL Day 14 (HTLV IIIB/H9 N.Y.; 250 µg/ml): 0
% OF POS CELLS (HTLV IIIB/H9 N.Y.; 250 µg/ml): 0%
p24 1/10 (HTLV IIIB/H9 N.Y.; 250 µg/ml): 0.148 absorbance (454 nm)
p24 1/100 (HTLV IIIB/H9 N.Y.; 250 µg/ml): 0.123 absorbance (454 nm)
p24 1/1,000 (HTLV IIIB/H9 N.Y.; 250 µg/ml): 0.1 absorbance (454 nm)
p24 1/10,000 (HTLV IIIB/H9 N.Y.; 250 µg/ml): 0.108 absorbance (454 nm)
# OF SYNCYTIA/WELL Day 7 (HTLV IIIB/H9 N.Y.; 1 mM, Table 8): 0
p24 1/100 (HTLV IIIB/H9 N.Y.; 1 mM, Table 8): 0.081 absorbance (454 nm)
p24 1/10 (HTLV IIIB/H9 N.Y.; [8]): 0.070 absorbance (454 nm)
p24 1/1000 (HTLV IIIB/H9 N.Y.; [8]): 0.08 absorbance (454 nm)
p24 1/10 (HTLV IIIB/H9 N.Y.; [9]): 0.081 absorbance (454 nm)
p24 1/1000 (HTLV IIIB/H9 N.Y.; [9]): 0.085 absorbance (454 nm)
# OF SYNCYTIA/WELL Day 7 (HTLV IIIB/H9 N.Y.; 4 mM, Table 8): 0
p24 1/10 (HTLV IIIB/H9 N.Y.; [10]): 0.087 absorbance (454 nm)
p24 1/100 (HTLV IIIB/H9 N.Y.; [10]): 0.079 absorbance (454 nm)
p24 1/1000 (HTLV IIIB/H9 N.Y.; [10]): 0.082 absorbance (454 nm)
